PubChem BioAssay AID602310 (National Center for Advancing Translational Sciences (NCATS), 2012)
Values joined by “and” are separate entries in the source; they are usually repeats but may differ in a detail not shown here. Identical values can stand only once. Among all 410,000 compounds or so, about 310 (0.076%) were called active. The inconclusive results got no clear call from the source; some entries with a clear call stand among them for comparison. The call rests on the fitted dose curve; in most records, active means well fitted curve in the direction sought with a large enough effect; inconclusive means small, poorly fitted or top-dose-only effect; inactive means flat fitted curve, though single readings scatter. Potencies of inconclusive entries are doubtful fits and often do not repeat.

These molecules were tested against DNA dC->dU-editing enzyme APOBEC-3G (Homo sapiens) (UniProt Q9HC16) (assay: qHTS for Inhibitors of Vif-A3G Interactions: qHTS). Conditions: HeLa A3G-eYFP + Vif (tagged APOBEC3G with the HIV-1 protein that degrades it), YFP fluorescence, overnight; series mostly up to 46.1 µM; activity, negative = active: at the top concentration.
Chain of UniProt Q9HC16 (Q9HC16 whole entry, looked up): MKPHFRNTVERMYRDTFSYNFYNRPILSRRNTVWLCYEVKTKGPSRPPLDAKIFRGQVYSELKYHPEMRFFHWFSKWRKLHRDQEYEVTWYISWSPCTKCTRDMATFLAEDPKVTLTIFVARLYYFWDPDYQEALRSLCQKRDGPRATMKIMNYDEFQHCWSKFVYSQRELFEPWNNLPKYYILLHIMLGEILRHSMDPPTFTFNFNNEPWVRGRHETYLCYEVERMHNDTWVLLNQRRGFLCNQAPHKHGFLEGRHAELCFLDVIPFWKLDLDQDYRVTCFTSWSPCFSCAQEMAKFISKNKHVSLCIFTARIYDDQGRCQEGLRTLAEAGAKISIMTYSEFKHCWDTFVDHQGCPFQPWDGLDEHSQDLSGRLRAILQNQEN
Outline: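 Read-out is eYFP fluorescence (Ex 488/Em 500-530) from Vif-expressing HeLa A3G-eYFP cells; more signal means A3G escaped Vif-mediated degradation. Cells plated overnight, compound pinned in, incubated overnight at 37 deg C.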
Further: nearly all actives have a fitted effect of over 60% in size.
On the % scale 0 is the no-effect control and ±100 the full control effect; potency means the concentration at half of the fitted maximal effect; tags describe the fitted curve by direction and shape.
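Wherever activity, negative = active is given: hits raise eYFP signal because A3G escapes Vif-driven loss.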

| Compound | Potency | activity, negative = active |
| --- | --- | --- |
| COc1cc2cc(-c3ccc(OC)c(OC)c3C)nc(N)c2cc1OC | inconclusive: 1.26 µM [inhibitor, full curve, poor fit] |  |
| Cc1ccc(-c2nn3c(C)nnc3s2)cc1NC(=O)c1ccc(-c2ccc(Cl)cc2Cl)o1 | inconclusive: 10 µM [inhibitor, partial curve] |  |
| CC1CCN(c2ccc(NC(=O)c3ccc([N+](=O)[O-])o3)cc2)CC1 | inconclusive: 11.2 µM [inhibitor, partial curve, poor fit] |  |
| O=C(N/N=C/c1cc(Br)c(Br)o1)c1cccnc1 | inconclusive: 12.6 µM [inhibitor, partial curve] |  |
| O=C(Nc1cc(Cl)ncn1)c1ccccc1 |  | inactive: 0.32% |
| COc1nc(-c2ccccc2)cc(-c2ccc3c(c2)OCO3)c1C#N | inconclusive: 1.26 µM [inhibitor, full curve, poor fit] |  |
| O=C(NCc1ccccc1)c1ccc(CSc2nc3cccnc3n2Cc2ccccc2F)cc1 |  | inactive: 1.21% |
| Cc1ccc2nc(SCC(=O)Nc3cc([N+](=O)[O-])ccc3F)[nH]c2c1 | inconclusive: 15.8 µM [inhibitor, single point] |  |
| Cc1ccc(N=Nc2c(N)nn(-c3ccccc3)c2N)cc1 | inconclusive: 2.51 µM [inhibitor, full curve] |  |
| COCCN(C(=S)Nc1ccccc1OC)C1CCN(C(C)=O)CC1 |  | inactive: -0.229% |
| CN1/C(=C/C(=O)c2nc(S(C)(=O)=O)ncc2Cl)C(C)(C)c2ccccc21 | inconclusive: 10 µM [inhibitor, partial curve] |  |
| CCN1C(=O)/C(=C/C=C2\N(CC)c3cc(S(=O)(=O)N(C)C)ccc3N2c2ccccc2)SC1=S | inconclusive: 1.12 µM [inhibitor, full curve, poor fit] |  |
| O=C(CSc1cccc[n+]1[O-])Nc1ccccc1C(F)(F)F |  | inactive: 0.634% |
| CC(C)(C)N(CC#CCC(O)(c1ccccc1)c1ccccc1)CCO |  | inactive: -1.92% |
| Nn1c(SCC(=O)Nc2ccc(S(=O)(=O)N3CCCC3)cc2)nnc1C(F)(F)F |  | inactive: 1.48% |
| COc1cccc2nccc(/C=C/c3ccc(N(C)C)cc3)c12 | inconclusive: 11.2 µM [inhibitor, partial curve, poor fit] |  |
| CN(C)C(CNC(=O)c1cnc(Cl)c(Cl)c1)c1ccccc1 (centres undefined) |  | inactive: -2.1% |
| COc1ccc(C(=O)c2sc3nc4c(c(C(F)(F)F)c3c2N)CN(C(C)=O)CC4)cc1OC | inconclusive: 17.8 µM [inhibitor, partial curve, poor fit] |  |
| O=C(N1CCN(c2ccccn2)CC1)N1c2ccccc2Sc2ccccc21 | inconclusive: 0.891 µM [inhibitor, full curve, poor fit] |  |
| CCOC(=O)c1c(C)n(-c2ccc(C)cc2)c2ccc(OCC(O)CNCC3CCCO3)cc12 (centres undefined) | inconclusive: 35.5 µM [inhibitor, single point] |  |
| FC(F)(F)C1=NNC(c2ccc3ccccc3c2)=NN1 | inconclusive: 25.1 µM [inhibitor, single point] |  |
| CC(C)(C)c1ccc(/C=C(\c2nc3ccccc3[nH]2)S(=O)(=O)c2ccccc2)cc1 | inconclusive: 15.8 µM [inhibitor, single point] |  |

| Compound | Potency | activity, negative = active |
| --- | --- | --- |
| O=[N+]([O-])c1cc(C=Nc2ccc3ccccc3c2)ccc1Br | inconclusive: 35.5 µM [inhibitor, single point] |  |
| COCCCNC(=O)c1cc2c(-c3cccc(OC)c3)nn(C)c2s1 | inconclusive: 22.4 µM [inhibitor, single point] and inconclusive: 11.2 µM [inhibitor, partial curve, poor fit] |  |
| Cc1ccccc1CCNC(=O)c1ccc(Cn2c(=O)c3cccn3c3cccnc32)cc1 | inconclusive: 11.2 µM [inhibitor, partial curve, poor fit] |  |
| CC(C)N(C(=O)[C@H]1C[C@H](CC(=O)NCc2cccc(C(F)(F)F)c2)C(=O)N2CCc3c([nH]c4cc(CCC(=O)N(C)C)ccc34)[C@]12C)C(C)C |  | inactive: 5.18% |
| Cc1cccnc1NC(=O)Cn1nc(-c2ccccc2)oc1=S |  | inactive: -0.389% |
| CC(=O)N1CN(Cc2ccccn2)Cc2c1sc1c2CCCC1 |  | inactive: -2.74% |
| CC(C)(C)OC(=O)NCc1ccc(NC(=O)c2nc[nH]c2C(=O)NCCCNC(=O)c2[nH]cnc2C(=O)Nc2ccc(CNC(=O)OC(C)(C)C)cc2)cc1 | inconclusive: 17.8 µM [inhibitor, partial curve, poor fit] |  |
| COC(=O)CCCn1c(C)cc(C(=O)CCl)c1C | inconclusive: 31.6 µM [inhibitor, single point] |  |
| O=C(NCC(c1cccs1)N1CCOCC1)c1ccc(Br)o1 (centres undefined) | inconclusive: 11.2 µM [inhibitor, partial curve] |  |
| COCCCNC(=O)c1cccn2c(=O)c3cc4ccccc4cc3nc12 | inconclusive: 3.16 µM [inhibitor, full curve, poor fit] |  |
| NC(Cc1ccccc1)c1csc(Nc2nccc(C(F)(F)F)n2)n1 (centres undefined) | inconclusive: 20 µM [inhibitor, single point] |  |
| C=CCOC(=O)C1=C[C@@H](c2ccccc2)C[C@@H](OCc2ccc(CO)cc2)O1 | inconclusive: 35.5 µM [inhibitor, single point] |  |
| NC(c1csc(Nc2nncc3ccccc23)n1)C1CCCCC1 (centres undefined) |  | inactive: 0.193% |
| CCc1ccc(S(=O)(=O)c2cn(Cc3ccccc3)c3cc(N4CCCC4)c(F)cc3c2=O)cc1 |  | inactive: 2.09% |
| COc1ccccc1Cc1c(-c2ccco2)nc2ccc(Cl)cn12 | inconclusive: 35.5 µM [inhibitor, single point] |  |
| COc1cc(C2NC(=O)NC(C)=C2C(=O)OC2CCCCC2)cc(Br)c1O (centres undefined) | inconclusive: 25.1 µM [inhibitor, single point] |  |
| CCOC(=O)c1cc2n(c1/N=C/N(C)C)-c1ccccc1C2=O | inconclusive: 25.1 µM [inhibitor, single point] |  |
| Cc1c(NC(=O)C(C)OC(=O)c2ccc([N+](=O)[O-])s2)c(=O)n(-c2ccccc2)n1C (centres undefined) | inconclusive: 35.5 µM [inhibitor, single point] |  |
| O=C1CCC/C(=N/NC(=O)c2sc3ccccc3c2Cl)C1 | inconclusive: 7.94 µM [inhibitor, partial curve, poor fit] |  |
| COc1ccc(N2C(=S)NC3c4cc(Cl)ccc4OC2(C)C3C(=O)N(C)C)cc1 (centres undefined) | inconclusive: 25.1 µM [inhibitor, single point] |  |
| CC1=CC(C)(C)Nc2ccc(OC(=O)CN3C(=O)C4CCCCC4C3=O)cc21 (centres undefined) | inconclusive: 22.4 µM [inhibitor, single point] |  |
| Cc1ccc(N2C(N)=C(C#N)C(c3cccnc3)C3=C2CC(C)(C)CC3=O)cc1 (centres undefined) | inconclusive: 17.8 µM [inhibitor, single point] |  |

| Compound | Potency | activity, negative = active |
| --- | --- | --- |
| CCc1ccc(N=C2NC(=O)/C(=C/c3cc(OC)c(OC)c(OC)c3)S2)cc1 | inconclusive: 15.8 µM [inhibitor, single point] |  |
| CCOC(=O)c1c(C)sc(-c2c(-c3ccccc3)[nH]c3[nH]c(=O)[nH]c(=O)c23)c1O | inconclusive: 11.2 µM [inhibitor, partial curve] |  |
| O=C(CSc1nc2cc(Cl)ccc2s1)c1cc2ccccc2o1 | inconclusive: 22.4 µM [inhibitor, single point] |  |
| COc1ccc(OC)c(-c2cc(-c3cccnc3)nc(N)c2C#N)c1 | inconclusive: 6.31 µM [inhibitor, partial curve] |  |
| CC(=O)c1ccc(NC(=O)C2CCN(c3nnc(C)c4c(C)n(-c5ccccc5)nc34)CC2)cc1 | inconclusive: 25.1 µM [inhibitor, single point] |  |
| COc1ccc(/C=N/NC(=S)Nc2ccccc2[N+](=O)[O-])cc1O | inconclusive: 11.2 µM [inhibitor, partial curve, poor fit] |  |
| Cc1cccc(NC(=S)N/N=C/c2c[nH]c3ccccc23)c1 | inconclusive: 1.58 µM [inhibitor, partial curve, poor fit] |  |
| CCOc1ccc(NS(=O)(=O)c2ccc(OCC)c3ncccc23)cc1 | inconclusive: 7.08 µM [inhibitor, partial curve] |  |
| O=C(COc1ccccc1)Nc1ccccc1N1CCCCC1 |  | inactive: 2.01% |
| Cc1ccc(C2C=C(c3ccccc3)Nc3nc(NS(=O)(=O)c4ccccc4)nn32)cc1 (centres undefined) | inconclusive: 15.8 µM [inhibitor, single point] |  |
| Cc1cc(C)n(-c2nc3ccccc3c(=O)n2OCCOc2ccccc2)n1 |  | inactive: 0.121% |
| C=CC[C@H](CC(=O)N(CCO)Cc1ccccc1)C(=O)NC[C@H](OC(=O)[C@@H](CC=C)Cc1ccc(F)cc1)c1ccccc1 |  | inactive: -13.4% |
| COc1ccc(S(=O)(=O)N2c3ccccc3OCC2CC(=O)O)cc1 (centres undefined) | inconclusive: 7.94 µM [inhibitor, partial curve, poor fit] |  |
| N#CC(C(=O)OC1CCCCC1)c1nc2ccccc2nc1N1CCOCC1 (centres undefined) | inconclusive: 15.8 µM [inhibitor, single point] |  |
| Cc1cc2c(cc1S(=O)(=O)Nc1cccc(C#N)c1)OCC(=O)N2 |  | inactive: 1.76% |
| CC(C)(Cc1ccc(O)cc1)NC(=O)CC(=O)N/N=C/c1ccc([N+](=O)[O-])cc1 |  | inactive: -11.2% |
| Cc1ccc(/C=C/C(=O)c2ccc(O)cc2)cc1 | inconclusive: 35.5 µM [inhibitor, single point] |  |
| CC(C)CCOc1ccc(CC(=O)NO)cc1 |  | inactive: 1.72% |
| CNc1ccc(Br)cc(C(=O)/C=C/c2cccc(OC)c2)c1=O | inconclusive: 25.1 µM [inhibitor, single point] |  |
| Cc1ccc2nc(/C(C#N)=C/c3ccc(-c4ccc(C(=O)OC(C)C)cc4)o3)[nH]c2c1 | active: 2 µM |  |
